Results reported in the supplement of paper PMC10126150.
Values marked as one replicate rest on one cluster of the flow cell; about a third of the high ones do not repeat.

System: ATP
Assay: switch fluorescence ratio, 500 uM ATP over buffer (Cy3 cluster intensity, sum of 5 cycles each) (fold (ratio)); higher = stronger signal-on switching upon ATP binding; sequences stand for … in TCGTCGGCAGCGTCAGATGTGTATAAGAGACAGTTTTTTTTTTTTTTTTTTTTTTTTT…TC
Conditions: aptamer strand: ATP DNA aptamer (quencher-CACCTGGGGGAGTATTGCGGAGGAAGG + anchor), 100 nM annealed; ATP concentration: 500 uM; one replicate
Summary of the method: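 Imaging in selection buffer was followed by imaging after 15 min with 500 uM ATP at 22 °C, for Cy3-labelled switching-strand clusters annealed to 100 nM quencher-labelled ATP aptamer on a modified Illumina MiSeq flow-cell. Five of these buffer/ATP cycles ran, separated by NaOH stripping and re-annealing. The fluorescence ratio per cluster is summed target-cycle over summed buffer-cycle Cy3 intensity, averaged per switch-domain sequence; clusters outside 100-1000 RFU were removed.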
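Note: ATP exposure 15 min at 22 °C before imaging.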

Row | Sequence | switch fluorescence ratio
1 | CGAATAGTCA | 1.07
2 | GGGAAAGTAC | 1.29
3 | GGTGGAACGA | 1.01
4 | AAAGAGCTTT | 0.95
5 | ATCGGAGCTG | 0.997
6 | GCGTTGCAC | 0.989
7 | TTCAGGGGAA | 1.06
8 | ACTGATGTGC | 1.1
9 | TTCTGTCTTA | 0.995
10 | CGAGGGGTC | 1.04
11 | GACTAAGAAA | 1.01
12 | CCCAGTTTGT | 1.09
13 | ATATTTCTAT | 0.979
14 | TATTACGGCC | 1.04
15 | GCTGAGATCA | 0.982
16 | CAAAGCCTAT | 0.999
17 | CATTAACGTG | 1.02
18 | AAGGGCCTCA | 0.982
19 | GGCTTTCAGG | 0.991
20 | CGCCTGCCTT | 1.03
21 | TTTGAAAGCA | 0.972
22 | CATGCGTATC | 1.15
23 | GCAATGTAGC | 1.4
24 | GAGGTTTTAG | 0.965
25 | AATGTCGGGT | 0.995
26 | TTACAAAGTT | 1.04

Row | Sequence | switch fluorescence ratio
27 | GTTTGGTCCA | 0.97
28 | TTTGCGTCCT | 1.03
29 | GCGGATTTCC | 0.999
30 | CTAGGAGCGG | 0.965
31 | GACACGGTAC | 2.18
32 | ACCACAATAT | 1.94
33 | TAAGAGCAA | 1.64
34 | ATATGAGGTA | 0.956
35 | CTTTCCAAAT | 1.02
36 | TCAAATACT | 1.05
37 | GACTCACATT | 1.24
38 | CGTTCGTCGA | 1.04
39 | GGTGAGCATG | 0.963
40 | TAGATGTACT | 1
41 | CCTTGGTT | 0.987
42 | ATCCGGCCTG | 1
43 | TATAGGAGTC | 0.975
44 | AATAAATTTT | 0.993
45 | TGAGGGTATT | 0.985
46 | ATCGTGATCA | 1.03
47 | TCGGCCCGCC | 1
48 | TGCAACGGCA | 0.97
49 | CACATGCGAT | 1.02
50 | ATTAGGTTTT | 1.05
51 | ACCGTACCGC | 1.7
52 | CCTTAAATAG | 1.72

Row | Sequence | switch fluorescence ratio
53 | GTCGCCTGTC | 1
54 | ATGGCCCCTT | 1.02
55 | AATTTACTGC | 1.05
56 | CCGCCGATC | 3.68
57 | CTCTAGCTTA | 1.27
58 | AGGTGGGGTA | 0.969
59 | CACACGAGCG | 0.976
60 | ATTGTAGAA | 0.964
61 | TCCTGGATGA | 1.01
62 | CAGTGCCGAG | 0.995
63 | TCTATTGTTT | 0.992
64 | CAAGTTGGTA | 0.988
65 | TCCGCATCCA | 3.27
66 | TTGGATCGTT | 0.987
67 | CTAATTAGAC | 0.972
68 | CGCGCTTATT | 1.03
69 | TTACATGTTT | 1
70 | ACAGGGGTGC | 1.15
71 | AATAGCTTCT | 1.03
72 | GTAGGGTTCA | 1
73 | TCGACTTTCG | 0.986
74 | CACCAGGCCC | 1.08
75 | CGCGGGA | 0.984
76 | ACGATGTTAT | 1.03
77 | TCGCAAATAT | 4.38
78 | CCACTAGCGA | 3.58

Row | Sequence | switch fluorescence ratio
79 | TGGAGATCAG | 1.02
80 | GATAGGAAGC | 1.05
81 | GTTTCCGCAG | 2.61
82 | TATAAAAATG | 1.01
83 | TCTCTTGCC | 1.04
84 | AAGCTATGG | 1.04
85 | TCACGAGGGT | 1.02
86 | CATTCTACGG | 1.05
87 | CTGGCCGTGG | 0.985
88 | GGTGACAAGA | 1.02
89 | TAATTTGCGC | 1.01
90 | CTGGGAAGCC | 0.962
91 | ACTATTGTAT | 1.05
92 | ATTGTCATTA | 0.973
93 | AAAGGTTCAG | 1.02
94 | ATCGGGTAGG | 1
95 | AAATGGGGGC | 0.997
96 | GCCTCTTGTA | 1.02
97 | GATGCTATGG | 1.12
98 | ATGTACATAT | 1.03
99 | TCATTGACGG | 1.06
100 | CACAGACATG | 1.05
101 | AGGTGGGTGC | 0.965
102 | AATTTAATAC | 1.08
103 | CCATGGATGC | 1.06
104 | GGAAGGCCAT | 1.07

Row | Sequence | switch fluorescence ratio
105 | TTTAACGCTA | 1.23
106 | GATCATAGCA | 0.991
107 | TATGCTTTTC | 0.985
108 | TGGAGATCAT | 0.992
109 | AGGTCGCTGT | 0.937
110 | GGCTTGGATC | 1.05
111 | AATATCCCCC | 1.12
112 | AAGATGATGA | 1.02
113 | GGATACCGAC | 1.23
114 | AGGGTACTAA | 1.05
115 | ATGTTATCCA | 1
116 | GACGCGTCAA | 0.983
117 | TAACGCCGCG | 1.06
118 | AATGGGCGTT | 0.977
119 | AAGCCGGTCA | 1.03
120 | GTGCCGGGAG | 0.982
121 | TCTGCCGACC | 1.27
122 | ATACAGTGCG | 1.02
123 | TTGAAATTA | 1.02
124 | TTCAACAGTT | 0.994
125 | GGTTCAACCT | 1.13
126 | ACCGTCCTCA | 1.99
127 | AAATTCCAAT | 1.05
128 | CTGCTCGT | 1.17
129 | TGATCATTT | 1.01
130 | GGTAGTGAAG | 1.01

Row | Sequence | switch fluorescence ratio
131 | GTGTACCGGT | 0.968
132 | GACCGGAGGA | 0.995
133 | AAGAAAGTAC | 1.15
134 | CCTAGCGTTC | 2.18
135 | CGCACAGCTT | 1.02
136 | TGCGATTTCA | 0.999
137 | GGCCCGTGGG | 0.929
138 | TTTAATGGCT | 0.992
139 | TACGAAAGCG | 1.06
140 | TGGCGGGACC | 0.988
141 | TCACCTATTG | 1.01
142 | CGGGTTTTGT | 1.01
143 | CACCCTCTAC | 1.22
144 | CGTATTAAAC | 1
145 | GGTATAATCC | 1.01
146 | ACCTACTTTA | 1.2
147 | GTTGCAAGCG | 0.943
148 | GGGTGCTCCC | 0.999
149 | GGTTATGATC | 0.986
150 | CTTAGTCCAA | 1.06
151 | CCCGGAAGCC | 1.86
152 | CCGGGGGAT | 1.96
153 | GAACCACTT | 1.04
154 | GCAGCAAGTC | 5.7
155 | CTAAATTCTT | 1
156 | CGTGGAAGTT | 1.05

Row | Sequence | switch fluorescence ratio
157 | GCGCGCCGT | 0.957
158 | TCGTTATCGA | 1
159 | TCTTAGCTG | 1.04
160 | GAGAATTCGG | 1.03
161 | TAAGTCGCTC | 0.951
162 | TTGTTAGCAA | 1.63
163 | GCAAGTCTGC | 1.04
164 | TGGTACTGAT | 1.06
165 | TTGTTATATA | 0.968
166 | AGGTGCCATA | 0.986
167 | ACCAGCGACA | 0.991
168 | TTAAGGTTCA | 1.06
169 | ATTGGATCG | 0.964
170 | ACATGATATG | 1
171 | AGCCTACAGG | 1.05
172 | TAAACTCGAG | 0.989
173 | TGCCGAGTGA | 1.01
174 | AGTTGGCGCA | 1.01
175 | GCTATTTATT | 0.983
176 | GGTCCCACCA | 0.974
177 | ATAGTACTAG | 1.05
178 | TAGACAATTC | 1.07
179 | TCGTATTCAA | 1
180 | CCTTAATGGC | 1.02
181 | TATAAACGAG | 1.02
182 | GGTGAATCTT | 1

Row | Sequence | switch fluorescence ratio
183 | CTATGCTGCT | 0.993
184 | CCGTTACCGC | 2.35
185 | TCCTAATGGT | 1.02
186 | CGCTCACGAT | 1.05
187 | AATCTATCGA | 0.966
188 | ATAATCGGTA | 0.95
189 | GGACCGTCCA | 0.972
190 | AAGGAATGTT | 1.16
191 | TGCGTTGTTC | 1.03
192 | ACGAATGCAG | 1.12
193 | CTGATAACTT | 1.03
194 | GAAAGGAAAC | 0.986
195 | ACCGCAAAGC | 2.06
196 | CACGGGGCCG | 0.875
197 | TAACGTGAGC | 1.12
198 | TGTCTAAGCG | 0.989
199 | CTAAGCTCTC | 1.1
200 | TTGATGTTT | 0.96
201 | TGCGAATTTT | 1.01
